What was measured:
Conditions in all cases: Flood, 250 g ai/ha; visual rating after 13 to 15 days; scale of 0 to 100 where 0 is no effect and 100 is complete control
[1] = tested on: barnyardgrass (Echinochloa crus-galli); test: Test B flooded paddy test, barnyardgrass
rice (Oryza sativa) = test: Test B flooded paddy test, rice
[2] = tested on: ducksalad (Heteranthera limosa); test: Test B flooded paddy test, ducksalad
[3] = tested on: sedge, umbrella (small-flower umbrella sedge, Cyperus difformis); test: Test B flooded paddy test, sedge, umbrella

Cc1cc(F)c(C(=O)N(C)C)cc1NS(=O)(=O)C(F)(F)F [Compound 215]
Plant response rating, Barnyardgrass [1]: 0
Plant response rating, Rice (rice (Oryza sativa)): 0
Plant response rating, Ducksalad [2]: 0
Plant response rating, Sedge, Umbrella [3]: 0

COC1CN(C(=O)c2cc(NS(=O)(=O)C(F)(F)F)c(C)cc2C)C1 [Compound 111]
Plant response rating, Barnyardgrass [1]: 60
Plant response rating, Rice (rice (Oryza sativa)): 30
Plant response rating, Ducksalad [2]: 65
Plant response rating, Sedge, Umbrella [3]: 80

Cc1cc(F)c(C(=O)N2CCCCC2)cc1N(S(=O)(=O)C(F)(F)F)S(=O)(=O)C(F)(F)F [Compound 212]
Plant response rating, Barnyardgrass [1]: 0
Plant response rating, Rice (rice (Oryza sativa)): 0
Plant response rating, Ducksalad [2]: 0
Plant response rating, Sedge, Umbrella [3]: 0

CCN(CC)C(=O)c1cc(NS(=O)(=O)C(F)(F)F)c(Cl)cc1C [Compound 21]
Plant response rating, Barnyardgrass [1]: 0
Plant response rating, Rice (rice (Oryza sativa)): 0
Plant response rating, Ducksalad [2]: 15
Plant response rating, Sedge, Umbrella [3]: 90

Cc1cc(C)c(N(S(=O)(=O)C(F)(F)F)S(=O)(=O)C(F)(F)F)cc1C(=O)N1CCC(Cl)CC1 [Compound 243]
Plant response rating, Barnyardgrass [1]: 10
Plant response rating, Rice (rice (Oryza sativa)): 0
Plant response rating, Ducksalad [2]: 65
Plant response rating, Sedge, Umbrella [3]: 98

Cc1cc(C)c(N2CC3(CCOCC3)OC2=O)cc1NS(=O)(=O)C(F)(F)F [Compound 156]
Plant response rating, Barnyardgrass [1]: 50
Plant response rating, Rice (rice (Oryza sativa)): 35
Plant response rating, Ducksalad [2]: 65
Plant response rating, Sedge, Umbrella [3]: 85

Cc1ccc(C(=O)N2CCC(C)CC2)cc1NS(=O)(=O)C(F)(F)F [Compound 7]
Plant response rating, Barnyardgrass [1]: 0
Plant response rating, Rice (rice (Oryza sativa)): 0
Plant response rating, Ducksalad [2]: 30
Plant response rating, Sedge, Umbrella [3]: 70

Cc1cc(C)c(N2CC3(CCCCC3)OC2=O)cc1NS(=O)(=O)C(F)(F)F [Compound 279]
Plant response rating, Barnyardgrass [1]: 0
Plant response rating, Rice (rice (Oryza sativa)): 0
Plant response rating, Ducksalad [2]: 0
Plant response rating, Sedge, Umbrella [3]: 0

Cc1cc(C)c(C(=O)N2CCC3(CCCC3)CC2)cc1NS(=O)(=O)C(F)(F)F [Compound 223]
Plant response rating, Barnyardgrass [1]: 0
Plant response rating, Rice (rice (Oryza sativa)): 0
Plant response rating, Ducksalad [2]: 0
Plant response rating, Sedge, Umbrella [3]: 0

Cc1cc(Cl)c(NS(=O)(=O)C(F)(F)F)cc1C(=O)N1CCSCC1 [Compound 26]
Plant response rating, Barnyardgrass [1]: 0
Plant response rating, Rice (rice (Oryza sativa)): 0
Plant response rating, Ducksalad [2]: 0
Plant response rating, Sedge, Umbrella [3]: 0

Cc1cc(C)c(C2=NOC3CCCCC23)cc1NS(=O)(=O)C(F)(F)F (centres unmarked) [Compound 123]
Plant response rating, Barnyardgrass [1]: 35
Plant response rating, Rice (rice (Oryza sativa)): 20
Plant response rating, Ducksalad [2]: 40
Plant response rating, Sedge, Umbrella [3]: 90

Cc1cc(Cl)c(NS(=O)(=O)C(F)(F)F)cc1C(=O)N1CCOCC1C (centres unmarked) [Compound 245]
Plant response rating, Barnyardgrass [1]: 45
Plant response rating, Rice (rice (Oryza sativa)): 0
Plant response rating, Ducksalad [2]: 70
Plant response rating, Sedge, Umbrella [3]: 75

CCCn1nccc(-c2cc(NS(=O)(=O)C(F)(F)F)c(C)cc2C)c1=O [Compound 58]
Plant response rating, Barnyardgrass [1]: 0
Plant response rating, Rice (rice (Oryza sativa)): 0
Plant response rating, Ducksalad [2]: 0
Plant response rating, Sedge, Umbrella [3]: 0

Cc1cc(F)c(C(=O)N2CC(C)OC(C)C2)cc1NS(=O)(=O)C(F)(F)F (centres unmarked) [Compound 238]
Plant response rating, Barnyardgrass [1]: 20
Plant response rating, Rice (rice (Oryza sativa)): 0
Plant response rating, Ducksalad [2]: 85
Plant response rating, Sedge, Umbrella [3]: 45

Cc1cc(Cl)c(N(S(=O)(=O)C(F)(F)F)S(=O)(=O)C(F)(F)F)cc1C1=NOC2(CCCCC2)C1 [Compound 217]
Plant response rating, Barnyardgrass [1]: 0
Plant response rating, Rice (rice (Oryza sativa)): 0
Plant response rating, Ducksalad [2]: 65
Plant response rating, Sedge, Umbrella [3]: 80

Cc1cc(C)c(C(=O)N2CCC(S(C)(=O)=O)CC2)cc1NS(=O)(=O)C(F)(F)F [Compound 233]
Plant response rating, Barnyardgrass [1]: 0
Plant response rating, Rice (rice (Oryza sativa)): 0
Plant response rating, Ducksalad [2]: 0
Plant response rating, Sedge, Umbrella [3]: 0

Cc1cc(C)c(C(=O)N2CCC(C)CC2)cc1NS(=O)(=O)C(F)(F)F [Compound 264]
Plant response rating, Barnyardgrass [1]: 0
Plant response rating, Rice (rice (Oryza sativa)): 0
Plant response rating, Ducksalad [2]: 85
Plant response rating, Sedge, Umbrella [3]: 90

CCC(C)C(=O)OCN(c1cc(C2=NOC3(CCCC3)C2)c(C)cc1C)S(=O)(=O)C(F)(F)F (centres unmarked) [Compound 151]
Plant response rating, Barnyardgrass [1]: 85
Plant response rating, Rice (rice (Oryza sativa)): 10
Plant response rating, Ducksalad [2]: 35
Plant response rating, Sedge, Umbrella [3]: 65

Cc1cc(C)c(N(S(=O)(=O)C(F)(F)F)S(=O)(=O)C(F)(F)F)cc1N1CCC2(CCCC2)C1=O [Compound 280]
Plant response rating, Barnyardgrass [1]: 95
Plant response rating, Rice (rice (Oryza sativa)): 0
Plant response rating, Ducksalad [2]: 35
Plant response rating, Sedge, Umbrella [3]: 95

COC1(OC)CCN(C(=O)c2cc(NS(=O)(=O)C(F)(F)F)c(C)cc2C)CC1 [Compound 101]
Plant response rating, Barnyardgrass [1]: 35
Plant response rating, Rice (rice (Oryza sativa)): 35
Plant response rating, Ducksalad [2]: 65
Plant response rating, Sedge, Umbrella [3]: 90

Cc1ccc(C(=O)N2CCCCC2)cc1NS(=O)(=O)C(F)(F)F [Compound 259]
Plant response rating, Barnyardgrass [1]: 0
Plant response rating, Rice (rice (Oryza sativa)): 0
Plant response rating, Ducksalad [2]: 30
Plant response rating, Sedge, Umbrella [3]: 25

Cc1cc(Cl)c(NS(=O)(=O)C(F)(F)F)cc1-c1cn(C)c(=O)n(C)c1=O [Compound 29]
Plant response rating, Barnyardgrass [1]: 0
Plant response rating, Rice (rice (Oryza sativa)): 15
Plant response rating, Ducksalad [2]: 0
Plant response rating, Sedge, Umbrella [3]: 85

Cc1cc(C)c(-c2ccnn(CC(C)C)c2=O)cc1NS(=O)(=O)C(F)(F)F [Compound 77]
Plant response rating, Barnyardgrass [1]: 10
Plant response rating, Rice (rice (Oryza sativa)): 15
Plant response rating, Ducksalad [2]: 40
Plant response rating, Sedge, Umbrella [3]: 85

Cc1cc(C)c(-c2cc(Br)nn(C)c2=O)cc1NS(=O)(=O)C(F)(F)F [Compound 69]
Plant response rating, Barnyardgrass [1]: 15
Plant response rating, Rice (rice (Oryza sativa)): 15
Plant response rating, Ducksalad [2]: 15
Plant response rating, Sedge, Umbrella [3]: 90

COc1cnn(C)c(=O)c1-c1cc(NS(=O)(=O)C(F)(F)F)c(C)cc1C [Compound 65]
Plant response rating, Barnyardgrass [1]: 0
Plant response rating, Rice (rice (Oryza sativa)): 0
Plant response rating, Ducksalad [2]: 0
Plant response rating, Sedge, Umbrella [3]: 0

CC(=O)N(c1cc(C2=NOC3(CCCC3)C2)c(C)cc1C)S(=O)(=O)C(F)(F)F [Compound 220]
Plant response rating, Barnyardgrass [1]: 15
Plant response rating, Rice (rice (Oryza sativa)): 0
Plant response rating, Ducksalad [2]: 30
Plant response rating, Sedge, Umbrella [3]: 95

Cc1cc(C)c(C(=O)N2CCC3(CC2)OCCCO3)cc1NS(=O)(=O)C(F)(F)F [Compound 194]
Plant response rating, Barnyardgrass [1]: 0
Plant response rating, Rice (rice (Oryza sativa)): 0
Plant response rating, Ducksalad [2]: 0
Plant response rating, Sedge, Umbrella [3]: 0

Cc1cc(C)c(C2=NOC3(C2)CC(C)OC(C)C3)cc1NS(=O)(=O)C(F)(F)F (single isomer, unassigned) [Compound 173]
Plant response rating, Barnyardgrass [1]: 80
Plant response rating, Rice (rice (Oryza sativa)): 15
Plant response rating, Ducksalad [2]: 75
Plant response rating, Sedge, Umbrella [3]: 80

Cc1cc(C)c(-c2cc(Cl)nn(C)c2=O)cc1NS(=O)(=O)C(F)(F)F [Compound 72]
Plant response rating, Barnyardgrass [1]: 20
Plant response rating, Rice (rice (Oryza sativa)): 15
Plant response rating, Ducksalad [2]: 75
Plant response rating, Sedge, Umbrella [3]: 85
